Test results from the supplement of paper PMC7826260.
The list shows a part of the results. Each Rep nickase domain was tested in vitro on the same pool of single strands (1 h at 37 °C, 3 µM enzyme); the outer parts of the 90-letter strands are left off. Numbers give uncut DNA relative to the enzyme-free pool, as log2; the lower, the more was cut; hits are not called. The scaling is to total reads, so uncut sequences can rise above 0 when many others are cut.

Columns and labels:
Assay in all cases: uncleaved DNA left, log2 of reads against the no-enzyme library (log2 ratio); higher = less cleavage (more negative = more Rep cleavage of the k-mer); sequences stand for … in CTCGTCCG…ACCGGAGA
[1] = tested on: T1, Rep nickase domain of Muscovy duck circovirus
T1 sequence (residues 1-111 of Rep, tag left off): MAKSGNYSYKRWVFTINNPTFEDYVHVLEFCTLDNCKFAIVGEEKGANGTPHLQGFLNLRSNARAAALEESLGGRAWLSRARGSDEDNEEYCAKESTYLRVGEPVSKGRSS
Experimental: (§1)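 A pool of 90-nt single-stranded DNAs with seven random bases just before the constant AC of the nick site (name = the seven bases) was cut by 3 µM recombinant His6-SUMO-tagged Rep nickase domain (300 nM DNA, 50 mM HEPES pH 8.0, 50 mM NaCl, 1 mM MnCl2, 1 h, 37 °C, three replicates). Uncut DNA was amplified and sequenced.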

[2] = tested on: T2, Rep nickase domain of banana bunchy top virus
T2 sequence (residues 1-94 of Rep, tag left off): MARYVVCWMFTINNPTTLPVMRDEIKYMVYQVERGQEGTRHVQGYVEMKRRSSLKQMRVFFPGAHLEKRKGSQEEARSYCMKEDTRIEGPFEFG
Experimental: as §1

[3] = tested on: T3, Rep nickase domain of cabbage leaf curl virus
T3 sequence (residues 1-116 of Rep, tag left off): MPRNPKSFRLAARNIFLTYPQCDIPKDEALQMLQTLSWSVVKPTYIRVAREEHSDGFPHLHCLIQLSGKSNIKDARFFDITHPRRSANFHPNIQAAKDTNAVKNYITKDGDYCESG
Experimental: as §1

[4] = tested on: T4, Rep nickase domain of chickpea chlorotic dwarf virus
T4 sequence (residues 1-124 of Rep, tag left off): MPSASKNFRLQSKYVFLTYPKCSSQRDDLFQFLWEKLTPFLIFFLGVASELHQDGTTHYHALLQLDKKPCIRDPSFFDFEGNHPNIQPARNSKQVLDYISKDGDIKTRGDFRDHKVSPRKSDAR
Experimental: as §1

[5] = tested on: T5, Rep nickase domain of faba bean necrotic yellows virus
T5 sequence (residues 1-98 of Rep, tag left off): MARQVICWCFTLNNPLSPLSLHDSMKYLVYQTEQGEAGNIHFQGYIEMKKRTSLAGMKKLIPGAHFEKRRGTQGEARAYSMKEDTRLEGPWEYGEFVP
Experimental: as §1

[6] = tested on: T6, Rep nickase domain of maize striate mosaic virus
T6 sequence (residues 1-117 of Rep, tag left off): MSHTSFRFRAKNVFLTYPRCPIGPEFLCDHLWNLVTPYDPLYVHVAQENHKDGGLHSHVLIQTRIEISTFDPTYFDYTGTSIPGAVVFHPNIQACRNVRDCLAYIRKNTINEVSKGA
Experimental: as §1

[7] = tested on: T7, Rep nickase domain of porcine circovirus 2
T7 sequence (residues 2-116 of Rep, tag left off): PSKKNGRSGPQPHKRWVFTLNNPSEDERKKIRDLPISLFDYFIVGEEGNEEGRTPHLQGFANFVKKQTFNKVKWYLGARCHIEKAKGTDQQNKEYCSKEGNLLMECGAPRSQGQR
Experimental: as §1

[8] = tested on: T8, Rep nickase domain of tomato golden mosaic virus
T8 sequence (residues 1-124 of Rep, tag left off): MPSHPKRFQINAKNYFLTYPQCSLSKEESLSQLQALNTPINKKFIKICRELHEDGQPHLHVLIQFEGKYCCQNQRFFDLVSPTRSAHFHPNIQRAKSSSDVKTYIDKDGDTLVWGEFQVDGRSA
Experimental: as §1

[9] = tested on: T9, Rep nickase domain of tomato yellow leaf curl virus
T9 sequence (residues 1-136 of Rep, tag left off): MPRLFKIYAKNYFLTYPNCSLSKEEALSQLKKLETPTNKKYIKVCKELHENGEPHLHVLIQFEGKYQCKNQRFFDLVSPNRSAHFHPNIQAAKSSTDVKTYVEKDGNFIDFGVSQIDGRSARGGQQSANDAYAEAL
Experimental: as §1

[10] = tested on: T10, Rep nickase domain of wheat dwarf virus
T10 sequence (residues 1-137 of Rep, tag left off): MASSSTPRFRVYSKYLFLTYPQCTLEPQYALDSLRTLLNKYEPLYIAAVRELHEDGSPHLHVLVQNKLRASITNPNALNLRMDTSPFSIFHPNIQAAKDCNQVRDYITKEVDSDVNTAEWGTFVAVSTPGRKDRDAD
Experimental: as §1

Row | Sequence | uncleaved DNA left (log2) [1] | uncleaved DNA left (log2) [2] | uncleaved DNA left (log2) [3] | uncleaved DNA left (log2) [4] | uncleaved DNA left (log2) [5] | uncleaved DNA left (log2) [6] | uncleaved DNA left (log2) [7] | uncleaved DNA left (log2) [8] | uncleaved DNA left (log2) [9] | uncleaved DNA left (log2) [10]
1 | TGCTGCA | -0.034 | -0.0332 | -0.357 | -0.552 | 0.0618 | -0.779 | -0.143 | -0.0666 | -0.0164 | -0.0767
2 | TCGGGTC | -0.0361 | 0.00717 | 0.411 | 0.704 | 0.00267 | 1.23 | -0.024 | -0.0657 | -0.024 | 0.0772
3 | CTTAATC | 0.183 | 0.212 | 0.126 | 0.11 | 0.137 | -0.72 | 0.0737 | 0.101 | 0.163 | 0.267
4 | CAAACCA | -0.203 | -0.0218 | -0.402 | -2.63 | -0.0108 | -0.842 | -0.5 | -0.127 | -0.0216 | -0.0557
5 | GCATCCC | 0.021 | -0.0273 | 0.000706 | 0.379 | -0.063 | 0.255 | -0.000208 | -0.0775 | 0.0443 | 0.00838
6 | TGTCCCG | -0.131 | -0.0361 | -0.741 | -0.379 | -0.0102 | -0.857 | -0.475 | -0.0698 | -0.0054 | -0.0403
7 | CCGAGAG | 0.165 | 0.269 | -0.0683 | 0.0278 | 0.228 | -0.453 | 0.267 | 0.189 | 0.156 | 0.0906
8 | TTCATTG | 0.0171 | -0.0864 | -0.555 | -0.722 | -0.0166 | -1.16 | 0.12 | -0.0583 | -0.0795 | -0.0649
9 | TTAGTCA | 0.0598 | 0.169 | 0.327 | -0.33 | 0.0812 | -0.0513 | 0.067 | 0.0405 | 0.193 | 0.175
10 | TATCACT | -0.314 | -0.0842 | -0.488 | -2.84 | -0.0231 | -0.501 | -2.25 | -0.157 | 0.00862 | -0.0358
11 | CTGCCCC | -0.343 | -0.164 | 0.0836 | -0.196 | -0.142 | -0.112 | -0.6 | -0.121 | -0.0924 | -0.11
12 | GTGCTAC | -0.145 | -0.0793 | 0.0923 | 0.7 | -0.178 | 1.68 | -0.225 | -0.0151 | -0.101 | -0.0216
13 | CATCGTG | 0.00681 | -0.0414 | -0.837 | -0.438 | -0.0247 | -1.11 | 0.119 | -0.0195 | 0.0487 | -0.0615
14 | ATAACCA | -0.042 | 0.0937 | -0.471 | -2.12 | 0.108 | -0.446 | -0.588 | 0.0674 | 0.093 | 0.0672
15 | GCCCGGG | -0.00899 | -0.0153 | 0.473 | 0.797 | -0.025 | 0.546 | 0.167 | -0.00162 | 0.0113 | -0.053
